Reference: patent US20160297830A1, “NOVEL COMPOUNDS USEFUL FOR THE TREATMENT OF BACTERIAL INFECTIOUS DISEASES” (GALAPAGOS NV, priority 2013, published 2016)

Columns and labels:
Type in all cases: cell-based
[1] = test system: H. influenza Hi10 clinical strain; details: sensitive
[2] = test system: H. influenza Hi3 ATCC 31517; details: H. influenza Hi3 ATCC 31517, sensitive strain
[3] = test system: H. influenza Hi106 ATCC 51907; details: H. influenza Hi106 ATCC 51907, sensitive strain

8-O-4-Bromo-5-Chloro-1H-pyrrole-2′-carbonylbranimycin [Compound 35]
>64 µg/mL: MIC Hi10 [1] | MIC Hi3 [2] | MIC Hi106 [3]
